# Test results taken from PubChem BioAssay AID588342 (National Center for Advancing Translational Sciences (NCATS), 2011).
# Hit rate of the full screen: of about 360,000 compounds, about 25,000 (6.9%) were called active. Inconclusive results, whose numbers are uncertain, are shown with a selection of clear calls. Calls come from the whole dose curve; as a rule, active = well fitted inhibition curve with a large enough effect; inconclusive = small, poorly fitted or top-dose-only effect; inactive = flat fitted curve, though single readings scatter. Potencies beside an inconclusive call are fits to weak or partial responses and may not hold up.
# Target: Luciferin 4-monooxygenase (Photinus pyralis) (UniProt P08659)
# Sequence of UniProt P08659 (P08659 whole entry, looked up): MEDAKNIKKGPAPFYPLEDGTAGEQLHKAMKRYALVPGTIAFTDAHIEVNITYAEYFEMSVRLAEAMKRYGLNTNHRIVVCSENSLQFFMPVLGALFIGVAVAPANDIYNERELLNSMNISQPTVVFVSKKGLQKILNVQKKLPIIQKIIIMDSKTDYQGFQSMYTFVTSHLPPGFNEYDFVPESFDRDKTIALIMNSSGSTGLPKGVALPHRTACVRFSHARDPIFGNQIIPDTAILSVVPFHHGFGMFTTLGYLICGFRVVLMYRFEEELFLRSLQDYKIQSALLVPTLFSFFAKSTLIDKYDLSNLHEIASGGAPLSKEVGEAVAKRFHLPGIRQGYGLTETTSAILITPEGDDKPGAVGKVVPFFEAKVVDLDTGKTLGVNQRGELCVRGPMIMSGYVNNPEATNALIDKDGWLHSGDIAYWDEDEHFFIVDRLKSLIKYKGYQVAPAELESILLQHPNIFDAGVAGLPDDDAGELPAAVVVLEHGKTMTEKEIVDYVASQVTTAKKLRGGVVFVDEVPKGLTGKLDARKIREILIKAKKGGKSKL
# Assay: qHTS profiling assay for firefly luciferase inhibitor/activator using purifed enzyme and Km concentrations of substrates (counterscreen for miR-21 project); note: nearly all actives have a fitted effect of over 55% in size
# Conditions: purified FLuc, luminescence inhibition; series mostly up to 57.5 µM
# Procedure, shortened: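 Purified P. pyralis luciferase, 10 nM final, with Km-level 10 uM D-luciferin and 10 uM ATP in 50 mM Tris acetate pH 7.5, 10 mM Mg acetate, 0.01% Tween-20, 0.05% BSA; 6-point qHTS titration about 60 µM downward; luminescence read.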
# Potency is the fitted concentration of half-maximal effect; tags give direction and shape of the fitted curve.
row,SMILES,Potency
1,O=C(O)/C(=C\c1ccc(Cl)c([N+](=O)[O-])c1)c1ccc(S(=O)(=O)N2CCCCC2)s1,"inconclusive: 37.9 µM [inhibitor, partial curve, poor fit]"
2,CC(C)(C)n1ncc2c(=O)n(Cc3c(Cl)cccc3Br)cnc21,"inconclusive: 25.1 µM [inhibitor, single point]"
3,O=C(O)Cc1ccc(NC(=O)c2ccc(NC(=O)c3ccco3)cc2)cc1,"inconclusive: 37.9 µM [inhibitor, partial curve, poor fit]"
4,CCOc1ccccc1/C=C/C(=O)c1ccc(Cl)cc1,"inconclusive: 23.9 µM [inhibitor, single point]"
5,CCOc1cc(/C=C2/N=C(C)C(C(=O)OC)=C2O)ccc1O,"inconclusive: 23.9 µM [inhibitor, partial curve, poor fit]"
6,COc1ccc(NC(=O)c2ccc(NC(=O)COC(=O)CC(NC(=O)c3ccccc3Cl)c3ccccc3)cc2)cc1 (configuration not stated),"inconclusive: 15.1 µM [inhibitor, partial curve]"
7,O=C(/C=C/c1ccco1)Oc1cc(Br)cc(/C=N/NC(=O)c2ccccc2O)c1,"inconclusive: 16.9 µM [inhibitor, partial curve]"
8,CCc1ccc(NC(=O)CCC(=O)N2CCSc3ccccc32)cc1,"inconclusive: 30.1 µM [inhibitor, single point]"
9,CCOc1ccc(-c2nnc(SCC(=O)Nc3cccc(Cl)c3C)o2)cc1,active: 13.5 µM
10,O=C(CSc1nc2sc3c(c2c(=O)[nH]1)CCCC3)Nc1ccccc1F,inactive
11,c1cc2nc(C34CC5CC(CC(C5)C3)C4)[nH]c2cn1,"inconclusive: 26.9 µM [inhibitor, single point]"
12,COc1cccc(-c2csc(N3CCN(C(=O)Nc4ccccc4Cl)CC3)n2)c1,"inconclusive: 21.3 µM [inhibitor, single point]"
13,CSc1nc2ccc(NC(=O)C3=NNC(=O)CC3)cc2s1,"inconclusive: 16.9 µM [inhibitor, partial curve]"
14,CC(C)Oc1ccc(CNS(=O)(=O)c2ccc(-c3cc(C(F)(F)F)on3)s2)cc1,inactive
15,O=C(Nc1ccccc1)c1cccnc1NCCc1ccccc1,"inconclusive: 37.9 µM [inhibitor, partial curve, poor fit]"
16,Cc1c(CC(=O)NCc2ccccc2Cl)c(=O)oc2cc(O)ccc12,active: 21.3 µM
17,O=C(c1ccccc1)n1c(=S)nc2ccccn21,active: 0.426 µM
18,Cc1cc(NC(=O)c2cccs2)ncc1NC(=O)C(C)C,active: 15.1 µM
19,Cc1ccc2c(=O)cc(C(=O)Nc3nc4ccc(Cl)cc4s3)oc2c1,"inconclusive: 3.79 µM [inhibitor, partial curve, poor fit]"
20,COc1ccc2nc(-c3ccccc3)cc(C(=O)OCC(=O)N3CCCCC3)c2c1,active: 21.3 µM
21,Nc1nc2ccc(Cc3ccncc3)cc2s1,active: 16.9 µM
22,Cc1cc2oc(C(=O)Nc3c(C)n(C)n(-c4ccccc4)c3=O)cc(=O)c2cc1C,inactive
23,Cc1ccc(NCC(=O)c2ccc([N+](=O)[O-])cc2)cc1,"inconclusive: 26.9 µM [inhibitor, partial curve, poor fit]"
24,CCOC(=O)Cn1c(=O)n(-c2ccc(Cl)cc2)c2nc(-c3ccc(Cl)cc3)nc(C(N)=O)c21,inactive

row,SMILES,Potency
1,CN(CC(=O)Nc1ccc(F)cc1)C(=O)COC(=O)c1cccc(N(C)C)c1,"inconclusive: 33.8 µM [inhibitor, single point]"
2,COc1ccc(NC(=O)CN(c2ccc(C)cc2)S(=O)(=O)c2cccs2)cc1,inactive
3,Nc1nc(C23CC4CC(CC(C4)C2)C3)cs1,"inconclusive: 19 µM [inhibitor, partial curve, poor fit]"
4,Cc1nn(C)c(C(=O)Nc2ccc3c(c2)OCO3)c1[N+](=O)[O-],"inconclusive: 26.9 µM [inhibitor, partial curve, poor fit]"
5,O=C(c1cc2nc(-c3ccc(F)cc3)cc(C(F)(F)F)n2n1)N1CCCCC1c1cccnc1 (configuration not stated),"inconclusive: 26.9 µM [inhibitor, partial curve, poor fit]"
6,CCN(CC)c1ccc(/C=C(\C#N)C(N)=O)cc1,"inconclusive: 21.3 µM [inhibitor, single point]"
7,CC(C)(NC(=O)c1ccccc1)c1nc2ccccc2s1,"inconclusive: 7.57 µM [inhibitor, partial curve, poor fit]"
8,CCc1cc2cccc(C)c2nc1SCC(=O)N1CCN(C(=O)c2ccco2)CC1,inactive
9,Cc1ccc(-n2c(C)c(C)c3c(NCCO)ncnc32)cc1,"inconclusive: 26.9 µM [inhibitor, partial curve]"
10,O=C(CCCCCNc1nc(=S)[nH]c2ccccc12)NCc1ccccc1Cl,inactive
11,O=C(Nc1nnc(-c2ccccc2)o1)c1cc(-c2cccs2)nc2ccccc12,active: 19 µM
12,Cc1ccc(-n2ncc3c(N4CCN(Cc5ccccc5)CC4)ncnc32)cc1,"inconclusive: 23.9 µM [inhibitor, single point]"
13,COc1ccc(Cl)cc1S(=O)(=O)N1CCN(C(=O)c2cc(-c3ccc(Br)cc3)n[nH]2)CC1,inactive
14,COc1ccc(-n2nc(C(=O)NCC(=O)Nc3ccccn3)c3ccccc3c2=O)cc1Cl,inactive
15,CCN(c1ccc(OC)cc1)S(=O)(=O)c1csc(C(=O)N2CCCC2)c1,inactive
16,COc1ccc(C(=O)NCC(=O)OCc2nc(N)nc(Nc3ccccc3C)n2)cc1,inactive
17,CC(=O)NNc1nc(-c2ccc(NC(C)=O)cc2)cs1,inactive
18,O=C(Nc1ccc(F)cc1)Nc1csc2ccccc12,active: 23.9 µM
19,COc1ccc2c(Sc3ccccc3)c(C(=O)NCc3cc(Br)ccc3OC)[nH]c2c1,inactive
20,COC(=O)CSc1nc2cc3c(cc2cc1C)OCCO3,inactive
21,CC(=O)Nc1ccc(NC(=O)C(C)OC(=O)CNC(=O)c2ccc(-c3ccccc3)cc2)cc1 (configuration not stated),"inconclusive: 1.51 µM [inhibitor, full curve]"
22,Nc1nc(CSc2nc3ccccc3s2)nc(Nc2ccccc2)n1,"inconclusive: 26.9 µM [inhibitor, partial curve, poor fit]"
23,COc1ccccc1C(=O)NCC(=O)n1nc(C)cc1C,"inconclusive: 23.9 µM [inhibitor, partial curve, poor fit]"
24,O=C(Nc1ccccc1N1CCOCC1)c1cccc2c(Br)cccc12,"inconclusive: 19 µM [inhibitor, partial curve, poor fit]"

row,SMILES,Potency
1,CCc1ccc(N2CC(C(=O)OCc3nc4ccsc4c(=O)[nH]3)CC2=O)cc1 (configuration not stated),inactive
2,Cc1ncc(CSc2nccc(=O)[nH]2)c(CO)c1O,inactive
3,CCOC(=O)N1CCN(C(=O)c2cc(COc3ccc(F)cc3F)on2)CC1,"inconclusive: 21.3 µM [inhibitor, single point]"
4,Nc1nc(N2CCN(C(=O)c3ccco3)CC2)nc2ccccc12,active: 19 µM
5,Cc1ccc(OCC(=O)Nc2nc(-c3ccc(Br)cc3)ns2)cc1,"inconclusive: 2.69 µM [inhibitor, full curve]"
6,CCCn1c(SCC(=O)c2ccc3c(c2)OCCO3)nnc1-c1ccco1,"inconclusive: 19 µM [inhibitor, partial curve]"
7,CCCn1ccc2c(OCC(=O)Nc3ccc(OC)c(OC)c3)cccc2c1=O,"inconclusive: 26.9 µM [inhibitor, partial curve, poor fit]"
8,CC1(C(=O)Nc2ccc3ccccc3c2)CC1(Br)Br (configuration not stated),"inconclusive: 26.9 µM [inhibitor, partial curve]"
9,COc1c(C)cc(Br)cc1C(=O)NCc1cccnc1,inactive
10,C/C(=N\NC(=O)c1nn(C)cc1Br)c1ccncc1,inactive
11,Cc1ccc(CNC(=O)C(C)n2c(=O)cc(-c3ccccc3)c3c(C)nn(C)c32)cc1 (configuration not stated),inactive
12,O=C(Cn1cnc2ccccc2c1=O)Nc1ccc2c(c1)OCO2,active: 19 µM
13,C=CCn1c(-c2cccc([N+](=O)[O-])c2)n[nH]c1=S,"inconclusive: 23.9 µM [inhibitor, partial curve, poor fit]"
14,CC(C)(C)c1ccc(C(=O)NC(=S)NCc2ccco2)cc1,active: 19 µM
15,Cc1ccc(SC2=C(Sc3ccc(C)cc3)C(=O)c3ccccc3C2=O)cc1,"inconclusive: 6.75 µM [inhibitor, full curve]"
16,CC1CCCN(c2nc(-c3cccnc3)nc3scc(-c4ccccc4)c23)C1 (configuration not stated),"inconclusive: 21.3 µM [inhibitor, partial curve, poor fit]"
17,Cc1oc(-c2ccccc2Cl)nc1CSc1nncn2c1cc1occc12,inactive
18,CC(=O)Nc1ccc(N2C(=O)c3cccc4c(O)ccc(c34)C2=O)cc1,"inconclusive: 21.3 µM [inhibitor, partial curve, poor fit]"
19,C/C=C/c1ccc(OCCOc2cccc3cccnc23)c(OC)c1,"inconclusive: 26.9 µM [inhibitor, single point]"
20,CCc1c(C)nc2nc(-c3ccccc3)nn2c1NCc1ccc(C)cc1,"inconclusive: 16.9 µM [inhibitor, partial curve]"
21,O=C(O)COc1ccc2c(-c3ccccc3)cc(=O)oc2c1,active: 19 µM
22,Cn1c(O)c(N=Nc2ccccc2[N+](=O)[O-])c2ccccc21,"inconclusive: 15.1 µM [inhibitor, partial curve]"
23,COc1cc(/C=N/NC(=O)c2cc(-c3ccc4c(c3)OCO4)n[nH]2)ccc1O,"inconclusive: 3.38 µM [inhibitor, full curve]"
24,Cc1oc2ccc(O)c(CN3CCCC(C)C3)c2c1C(=O)Nc1ccccc1 (configuration not stated),inactive
